# In the supplement of paper PMC7826260:
# This is one part of the list. Each Rep nickase domain was tested in vitro on the same pool of single strands (1 h at 37 °C, 3 µM enzyme); the outer parts of the 90-letter strands are left off. Numbers give uncut DNA relative to the enzyme-free pool, as log2; more negative means more cut, near 0 not cut, and no call is made. The scaling is to total reads, so uncut sequences can rise above 0 when many others are cut.
# Tested on: T1, Rep nickase domain of tomato golden mosaic virus
# T1 sequence (residues 1-124, tag not shown): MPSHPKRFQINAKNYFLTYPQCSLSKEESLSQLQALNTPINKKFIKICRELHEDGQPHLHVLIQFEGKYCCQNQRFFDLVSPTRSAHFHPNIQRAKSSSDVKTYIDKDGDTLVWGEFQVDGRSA
# Assay: uncleaved DNA left, log2 of reads against the no-enzyme library (log2 ratio); higher = less cleavage (more negative = more Rep cleavage of the k-mer); sequences stand for … in CTCGTCCG…ACCGGAGA
# Description: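 A pool of 90-nt single-stranded DNAs with seven random bases just before the constant AC of the nick site (name = the seven bases) was cut by 3 µM recombinant His6-SUMO-tagged Rep nickase domain (300 nM DNA, 50 mM HEPES pH 8.0, 50 mM NaCl, 1 mM MnCl2, 1 h, 37 °C, three replicates). Uncut DNA was amplified and sequenced.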
row,Sequence,uncleaved DNA left (log2)
1,AAAAGCC,0.0996
2,TTGAGTC,-0.0773
3,CCGGTTA,0.00683
4,TGGTCGC,-0.154
5,AATCCTG,0.0543
6,TGCCTGC,0.107
7,GGCAACC,0.0815
8,ACGTCTA,-0.0904
9,TTAGGGA,0.126
10,CCGTTTT,-0.291
11,CGCAAAC,-0.0762
12,TGCCGCA,-0.138
13,TATCCAG,0.0238
14,TGAGATT,-0.0168
15,TGCATGC,0.00583
16,TGAAATA,0.084
17,CTAGTAC,-0.0729
18,AGACTAT,0.0747
19,TCAAGCT,0.00372
20,TTCCAGA,0.0578

row,Sequence,uncleaved DNA left (log2)
1,ACTACCA,-0.0165
2,ATGCTAA,-0.0373
3,AGTGCAT,0.00907
4,GGGAGAG,0.0601
5,AGAAACC,0.0204
6,TCTCCAT,-0.0726
7,CACACAA,-0.0459
8,TGGTGTG,-0.0339
9,ACATGCT,-0.133
10,GTAAACG,-0.0243
11,AATGAGC,-0.0661
12,AAGTCTT,-0.208
13,ATTCATG,-0.00124
14,GTTTATT,0.0238
15,TACAGGA,0.196
16,CATACAC,-0.0731
17,GGACTTA,-0.155
18,CGGTCAC,-0.284
19,TTGGCCG,-0.0881
20,ATGCCTA,-0.14
